Assay results published in PubChem BioAssay AID686979 (National Center for Advancing Translational Sciences (NCATS), 2013).
Among all 420,000 compounds or so, about 50,000 (12%) were called active. The inconclusive results got no clear call from the source; some entries with a clear call stand among them for comparison. Calls come from the whole dose curve; as a rule, active = well fitted inhibition curve with a large enough effect; inconclusive = small, poorly fitted or top-dose-only effect; inactive = flat fitted curve, though single readings scatter. Potencies of inconclusive entries are left out as doubtful fits.

Test: qHTS for Inhibitors of human tyrosyl-DNA phosphodiesterase 1 (TDP1): qHTS in cells in presence of CPT; note: nearly all actives have a fitted effect of over 55% in size
Conditions: chicken DT40 Tdp1-/-;hTDP1 cells + 20 nM CPT, ATP luminescence, 48 h; activity change, negative = growth inhibition: at 46.2 µM (top of the series)
Procedure, shortened: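 Chicken DT40 Tdp1-/- cells stably complemented with human TDP1 were seeded at 400 cells/well in medium containing 20 nM camptothecin, exposed to pin-transferred compounds, and grown at 37 °C for at least 48 hr. Viability was read as ATP luminescence.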
% is set by controls: 0 for no effect and ±100 for the full control effect; potency is the fitted concentration of half-maximal effect; tags give direction and shape of the fitted curve.

Row | Structure (SMILES) | Potency | activity change, negative = growth inhibition
1 | CCOC(=S)N/C(=N\S(=O)(=O)c1ccc(C)cc1)c1ccccc1 | inconclusive [inhibitor, single point] | 
2 | CCn1nnnc1SCC(=O)N1c2ccccc2CCc2ccccc21 | inconclusive [inhibitor, single point] | 
3 | CCc1ccc(S(=O)(=O)NCc2cn3ccsc3n2)s1 |  | inactive: -24.4%
4 | CCCCCCCN1CCC(=O)N([C@H](CO)c2ccccc2)CC1 |  | inactive: -15.9%
5 | COc1cc(NC(=O)c2cc(C)nc3c2c(C)nn3-c2ccccc2Cl)cc(OC)c1 | inconclusive [inhibitor, single point] | 
6 | COc1ccc(CNC(=O)C23CN(Cc4ccccc4)CC2C(c2ccc([N+](=O)[O-])cc2)=NO3)cc1 (centres undefined) | inconclusive [inhibitor, single point] | 
7 | Cc1ccc2c(c1C)C(=O)C(=O)N2 |  | inactive: 2.04%
8 | CCN1CCN(S(=O)(=O)c2cc(OCC(=O)NC3CCCCC3)c(C)cc2Cl)CC1 | active: 23.1 µM | 
9 | O=C1C=C(c2ccc(-c3ccccc3)c(F)c2)C[C@@H](c2ccc(Cl)cc2)C1 | active: 20.6 µM | 
10 | Cc1ccc(-c2csc(N(CCO)CCCn3c(C(F)(F)F)nc4cc(C(F)(F)F)ccc43)n2)cc1 | inconclusive [inhibitor, single point] | 
11 | Cc1ccc2cc3c(N)nn(C(=O)c4cccc(F)c4)c3nc2c1 | inconclusive [inhibitor, partial curve] | 
12 | Cc1cc(C)c2nc(N3CCC(C(=O)N4CCCC4)CC3)sc2c1 | inconclusive [inhibitor, single point] | 
13 | COc1ccc(OC)c(CN2CCN(C(=O)c3ccc(NS(=O)(=O)c4cccc([N+](=O)[O-])c4)cc3)CC2)c1 |  | inactive: -21.7%
14 | CCOc1ccc(-c2nc(CSCC(=O)NCC3CCCO3)c(C)o2)cc1 (centres undefined) |  | inactive: -25.1%
15 | CCC(=O)c1ccc(N2CCN(C(=O)c3ccc(F)cc3)CC2)c(F)c1 | active: 20.6 µM | 
16 | O=C(NCCNC(=O)c1ccco1)c1ccc(Cl)c(Cl)c1 |  | inactive: -10.8%
17 | CC(=O)c1ccc(NC(=O)CC23CC4CC(C2)CC(n2nnc(C)n2)(C4)C3)cc1 | inconclusive [inhibitor, single point] | 
18 | CC1Cc2ccccc2N1Cc1cc(=O)c(OCC(=O)NCCc2ccccc2)co1 (centres undefined) | inconclusive [inhibitor, single point] | 
19 | CCCCC(=O)Nc1nc2ccc3nc(C)sc3c2s1 | inconclusive [inhibitor, partial curve] | 
20 | Cc1ccc(N2CCN(S(=O)(=O)c3ccc(F)c(C(=O)Nc4ccc(Cl)cc4Cl)c3)CC2C)cc1 (centres undefined) | inconclusive [inhibitor, full curve] | 
21 | O=C(/C=C/c1ccccc1[N+](=O)[O-])NCCCn1ccnc1 |  | inactive: 1.32%
22 | COc1ccc2oc(=Nc3ccc(C(=O)O)cc3)c(C(=O)NCc3ccco3)cc2c1 | inconclusive [inhibitor, single point] | 
23 | Cc1cc2c(cc3c(SCc4nc(-c5ccccc5)oc4C)nnc(C)n32)o1 | active: 16.4 µM | 
24 | CCOC(=O)C(NCCc1ccccc1F)(NC(=O)CC)C(F)(F)F (centres undefined) |  | inactive: 2.15%
25 | O=C(Nc1ccccc1)Nc1nnc(SCc2ccc(Cl)cc2)s1 | inconclusive [inhibitor, single point] | 

Row | Structure (SMILES) | Potency | activity change, negative = growth inhibition
26 | O=C(CBr)N1CCc2ccccc2C(c2ccccc2)C1 (centres undefined) | active: 2.59 µM | 
27 | CN(Cc1ccc(Cl)c(Cl)c1)C(=O)c1cccc(S(=O)(=O)N2CCN(Cc3ccccc3)CC2)c1 | active: 20.6 µM | 
28 | Cc1cccc(C(=O)N2CCCC(N3CCN(c4cccc(Cl)c4)CC3)C2)n1 (centres undefined) | inconclusive [inhibitor, single point] | 
29 | Nc1ccc2c(c1)C=C/C2=C\c1ccccc1 |  | inactive: 2.95%
30 | Cc1cc2ccccn2c1C(C[N+](=O)[O-])c1ccc(N(C)C)cc1 (centres undefined) | active: 16.4 µM | 
31 | COc1ccc(C2=CC(c3ccc(F)cc3)n3nnnc3N2)cc1 (centres undefined) | inconclusive [inhibitor, single point] | 
32 | CCCOC(=O)c1ccc(NC(=O)c2ccccc2OC)cc1 | inconclusive [inhibitor, single point] | 
33 | CCOc1ccc(CCN2C(=S)N([C@@H](CC(C)C)CN3CCCC3CN3C(=S)NC[C@@H]3Cc3ccc(O)cc3)C[C@@H]2CC(C)C)cc1 (some centres undefined) | inconclusive [inhibitor, single point] | 
34 | CC1=NN(c2ccccc2)C(=O)/C1=C\c1cn(CCC#N)nc1-c1ccc(Cl)cc1 | inconclusive [inhibitor, single point] | 
35 | Cc1c(C(=O)N2CCN(C(=O)c3ccco3)CC2)oc2c(Cl)cccc12 | inconclusive [inhibitor, single point] | 
36 | O=C(Nc1cccnc1)c1cccc(S(=O)(=O)N2CCCCC2)c1 |  | inactive: -1.34%
37 | CCn1ccc2c(OCC(=O)Nc3ccccc3C)cccc2c1=O | active: 14.6 µM | 
38 | CCOC(=O)C1=C[C@@H](C(C)(C)C)N(S(=O)(=O)c2ccc(C)cc2)[C@H]1c1ccc(C#N)cc1 | inconclusive [inhibitor, single point] | 
39 | O=C(Nc1ccc2c(c1)OCO2)N1CCN(c2ncc(C(F)(F)F)cc2Cl)CC1 | active: 20.6 µM | 
40 | Cc1sc2nc(-c3ccc(Br)cc3)oc(=O)c2c1C |  | inactive: -2.82%
41 | CC1CCN(CCC(=O)N2CCCc3c2c(=O)oc2ccc(O)cc32)CC1 | inconclusive [inhibitor, partial curve] | 
42 | CC(=O)/C=C1/SC(CC(=O)O)C(=O)N1c1ccccc1 (centres undefined) |  | inactive: 4.85%
43 | O=C1c2ccccc2C(=O)N1CCOc1ccc(F)cc1 |  | inactive: 12.8%
44 | Cc1cccn2c(=O)c3cc(C(N)=S)c(=N)n(CCCOC(C)C)c3nc12 | inconclusive [inhibitor, single point] | 
45 | O=C(CC1Sc2ccccc2NC1=O)c1ccc(Br)cc1 (centres undefined) |  | inactive: -14.6%
46 | CC1(C)CC(NC(=O)C(Cl)(Cl)Cl)CC(C)(C)N1 |  | inactive: 8.46%
47 | CCOC(=O)c1ccc(NC(=O)Nc2cc3c(cc2N2CCCC2)n(C)c(=O)n3C)cc1 | inconclusive [inhibitor, single point] | 
48 | CC(Sc1nc2c(c(=O)[nH]1)CCCC2)C(=O)Nc1ccc(Br)cn1 (centres undefined) | active: 23.1 µM | 
49 | CC(C)(C)C(=O)COC(=O)c1ccc(N)c([N+](=O)[O-])c1 |  | inactive: 18.4%
50 | Cc1[nH]c2ccccc2c1C(=O)COC(=O)c1c(-c2ccccc2Cl)noc1C | inconclusive [inhibitor, single point] | 

Row | Structure (SMILES) | Potency | activity change, negative = growth inhibition
51 | O=C(Nc1ccc2nc(SCC(=O)N3CCCc4ccccc43)sc2c1)c1ccccc1 | active: 20.6 µM | 
52 | CCn1c(C)c(C)c2cc(C(=O)NCCc3ccco3)ccc21 |  | inactive: -13.1%
53 | CCN1CCN(C(CNS(=O)(=O)c2ccccc2)c2ccccc2)CC1 (centres undefined) |  | inactive: -8.72%
54 | CCc1ccc(OCC(=O)N/N=C/c2cc([N+](=O)[O-])ccc2N2CCOCC2)cc1 | inconclusive [inhibitor, single point] | 
55 | COc1cc(CN(C(=O)c2ccco2)C2CCS(=O)(=O)C2)cc(OC)c1OC (centres undefined) |  | inactive: -1.64%
56 | COC(=O)c1[nH]c2ccc(Cl)cc2c1NC(=O)Oc1ccccc1 |  | inactive: 2.77%
57 | Cc1ccc(N=C2CCCCCN2C)c(C#N)c1 |  | inactive: -12.2%
58 | COC(=O)C1(C(=O)OC)c2ncccc2N(S(=O)(=O)c2ccc(C)cc2)C1CC(=O)c1ccccc1 (centres undefined) | inconclusive [inhibitor, single point] | 
59 | CC(C)(C)OC(=O)N[C@@H](Cc1ccccc1)C(=O)N1CCC(C(=O)N[C@@H](Cc2c[nH]c3ccccc23)C(=O)O)CC1 |  | inactive: -1.62%
60 | O=C(CN1CCN(c2cccc(Cl)c2)CC1)Nc1ccc([N+](=O)[O-])cc1C(=O)Nc1ccccc1F | inconclusive [inhibitor, single point] | 
61 | COc1ccc(S(=O)(=O)Nc2ccc3c(c2)CCCN3S(=O)(=O)c2ccc(C)cc2)cc1F | inconclusive [inhibitor, single point] | 
62 | CCOc1ccc(S(=O)(=O)Nc2cc(OC)ccc2OC)cc1 | active: 0.366 µM | 
63 | COc1cccc(-n2c(O)c(C=NCc3ccccn3)c3ccccc3c2=O)c1 |  | inactive: 6.63%
64 | COc1cccc(CNC(=O)c2cc(C)nc3c2c(C)nn3-c2cccc(F)c2)c1 | inconclusive [inhibitor, single point] | 
65 | Cc1ccc(OC(C)C(=O)N(C)Cc2ccccc2)c([N+](=O)[O-])n1 (centres undefined) |  | inactive: -6.52%
66 | CCCOc1ccc(S(=O)(=O)NCCN2CCOCC2)c2ccccc12 | inconclusive [inhibitor, single point] | 
67 | Cn1c(NC(=O)c2cccc(Cn3cc(Cl)cn3)c2)nc2ccccc21 | inconclusive [inhibitor, partial curve] | 
68 | COC(=O)c1cc(NC(=O)c2nn(C)c3c2COc2ccccc2-3)cc(C(=O)OC)c1 | inconclusive [inhibitor, full curve] | 
69 | Cc1ccc(-n2cc(CNCCN3CCOC3=O)c(-c3ccc(F)cc3)n2)cc1 | active: 23.1 µM | 
70 | O=C(NNS(=O)(=O)c1ccccc1)C(O)(c1ccccc1)c1ccccc1 |  | inactive: 8.3%
71 | CSc1ccccc1NC(=S)Nc1ccc(S(N)(=O)=O)cc1 |  | inactive: 15.9%
72 | CCOc1ccc(-n2c(-c3ccco3)nc3c(cnn3-c3ccc(C)cc3)c2=O)cc1 | inconclusive [inhibitor, partial curve] | 
73 | Cc1ccc(N2C(=O)CC(SCC(=O)Nc3ccc(S(N)(=O)=O)cc3)C2=O)cc1 (centres undefined) | inconclusive [inhibitor, single point] | 
74 | O=C(Nc1ccccc1N1CCN(C(=O)c2ccc(Cl)cc2)CC1)c1cccc(F)c1 | inconclusive [inhibitor, single point] | 
